Hit rate of the full screen: of about 310,000 compounds, about 14,000 (4.5%) showed an effect of 50% or more. The effect is printed as a negative number. This is one part of the list.
biological target: human ether-à-go-go-related gene (hERG) potassium channel (human, UniProt Q12809); experiment: primary screen, population patch clamp on CHO cells stably expressing hERG
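Note: peak tail current of the secondary pulse compared with the same well before compound.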

Sequence of human ether-à-go-go-related gene (hERG) potassium channel (Q12809 whole entry, looked up): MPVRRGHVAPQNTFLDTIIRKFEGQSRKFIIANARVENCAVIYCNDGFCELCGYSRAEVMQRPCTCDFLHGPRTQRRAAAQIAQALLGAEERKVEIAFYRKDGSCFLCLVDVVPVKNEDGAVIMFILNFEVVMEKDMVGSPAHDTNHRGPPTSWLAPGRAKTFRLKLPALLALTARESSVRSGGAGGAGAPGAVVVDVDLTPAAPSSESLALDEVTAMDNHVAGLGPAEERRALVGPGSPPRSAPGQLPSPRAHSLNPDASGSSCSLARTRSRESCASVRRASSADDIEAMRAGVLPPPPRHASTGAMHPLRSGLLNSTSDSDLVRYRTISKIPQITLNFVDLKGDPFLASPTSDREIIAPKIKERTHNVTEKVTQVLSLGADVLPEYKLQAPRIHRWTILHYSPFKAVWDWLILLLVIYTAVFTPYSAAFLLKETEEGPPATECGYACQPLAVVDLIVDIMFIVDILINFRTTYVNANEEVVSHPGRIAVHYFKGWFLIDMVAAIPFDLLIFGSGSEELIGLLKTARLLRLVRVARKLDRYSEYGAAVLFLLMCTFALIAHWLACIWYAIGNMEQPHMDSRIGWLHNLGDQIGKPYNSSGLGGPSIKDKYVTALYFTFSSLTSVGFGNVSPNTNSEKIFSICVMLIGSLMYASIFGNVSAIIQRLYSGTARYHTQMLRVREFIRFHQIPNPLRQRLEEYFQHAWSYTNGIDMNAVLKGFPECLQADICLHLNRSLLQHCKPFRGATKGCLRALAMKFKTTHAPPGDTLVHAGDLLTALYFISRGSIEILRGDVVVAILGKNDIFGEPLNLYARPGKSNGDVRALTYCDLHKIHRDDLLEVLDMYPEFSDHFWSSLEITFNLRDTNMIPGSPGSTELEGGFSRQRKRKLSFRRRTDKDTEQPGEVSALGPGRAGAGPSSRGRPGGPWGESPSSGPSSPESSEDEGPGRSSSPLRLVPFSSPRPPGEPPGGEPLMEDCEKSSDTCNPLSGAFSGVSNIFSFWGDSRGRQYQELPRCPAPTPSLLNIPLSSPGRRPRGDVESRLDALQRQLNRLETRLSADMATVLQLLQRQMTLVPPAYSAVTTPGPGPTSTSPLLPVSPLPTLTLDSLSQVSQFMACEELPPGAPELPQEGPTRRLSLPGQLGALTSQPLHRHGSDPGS

Row | SMILES | hERG current change (%, negative = inhibition) at 10uM [%]
1 | NC(=S)N/N=C/c1ccc(OC(=O)c2cccnc2)cc1 | 13.3
2 | N#CC(C#N)=C1NC2(CCCCC2)Cc2ccccc21 | -1.99
3 | COc1ccc(S(=O)(=O)n2cnc3ccccc32)cc1.Cl | 13.4
4 | CCC1(OC(=O)CN)C(=O)OCc2c1cc1n(c2=O)Cc2cc3ccccc3nc2-1.Cl (centres unmarked) | 8.16
5 | CCOC(=O)CN1CCC(c2cc(-c3ccc(Cl)cc3)n[nH]2)CC1 | -12.5
6 | CCN(CC)Cc1c(NC(=O)c2ccccc2)sc(C)c1C | -38.8
7 | O=[N+]([O-])c1cccc(S(=O)(=O)Nc2ccc(S(=O)(=O)NCC3CCCO3)cc2)c1 (centres unmarked) | -0.96
8 | O=[N+]([O-])c1ccc(-c2cn(-c3ccc(Cl)cc3)c(=S)[nH]2)cc1 | -0.247
9 | COc1ccc(C(=O)NC2CCN(C(=S)Nc3cc(C)ccc3C)CC2)cc1 | 2.78
10 | CC(C)Nc1nc(NC(N)=S)nc(NC(C)C)n1 | 7.4
11 | COc1cc(/C(C#N)=C/c2cccc3ccccc23)c([N+](=O)[O-])cc1OC | 17.4
12 | c1ccc(-c2nn3c(Cn4nnc5ccccc54)nnc3s2)nc1 | -14.4
13 | Cc1nn(C(C)(C)C)c(OC(=O)CC(C)C)c1S(=O)(=O)c1ccccc1 | 5.75
14 | O=P(Cc1cc[n+]([O-])cc1)(c1ccccc1)c1ccccc1 | 12.6
15 | CCC(Oc1ccccc1F)C(=O)Nc1ccc2c(c1)n(C)c(=O)n2C (centres unmarked) | 7.19
16 | C=CCNC(=S)N1CCN(c2ccc([N+](=O)[O-])cc2)CC1 | -63.6
17 | CCCc1nc2sc3c(c2c(=O)n1NC(=O)c1ccco1)CC(C)(C)OC3 | 11.8
18 | CC(C)(C)c1cc(NC(=O)c2cccnc2)no1 | -9.07
19 | CNC(=S)Nc1cccc(C(=O)OC)c1 | 7.73
20 | Cc1ccc2c(CSc3nncs3)cc(=O)oc2c1 | -26.7
21 | Cc1nnc(SCC(=O)NCC2COc3ccccc3O2)s1 (centres unmarked) | 15.5
22 | CCSc1ncnc2c(C#N)c3n(c12)CCCCC3 | -23.8

Row | SMILES | hERG current change (%, negative = inhibition) at 10uM [%]
23 | Nc1nc(Nc2ccccc2F)nc(NCCO)c1[N+](=O)[O-] | -9.81
24 | NC(=O)c1c(NC(=O)c2ccccc2)sc2c1CCc1ccccc1-2 | -0.721
25 | CCOC(=O)C1CCCN(CC(=O)Nc2c(C(=O)OC)[nH]c3ccc(Cl)cc23)C1 (centres unmarked) | -12.3
26 | NS(=O)(=O)c1cc(C(=O)OCC(=O)Nc2ccccc2[N+](=O)[O-])ccc1Cl | -6.13
27 | COc1ccc(CC2(CO)CCN(C/C=C/c3ccccc3OC)CC2)cc1 | -72.8
28 | CC(=O)NC(Cc1cccc(F)c1)C(=O)NC1CCN(C(=O)Nc2ccc(C)cc2)CC1 (centres unmarked) | 20.3
29 | COc1cccc(C2C(C(=O)c3cccs3)=C(O)C(=O)N2CCN2CCOCC2)c1 (centres unmarked) | 24
30 | CCN(CC)S(=O)(=O)c1ccc(N2CCN(CCOc3ccc(OC)cc3)CC2)nc1 | -46.8
31 | CCOC(=O)c1c(NC(=O)c2cccs2)sc2c1CC(C)(C)OC2 | 4.12
32 | COc1ccc(Cc2nnc(NC(=O)C3CC(=O)N(c4ccccc4)C3)s2)cc1OC (centres unmarked) | -4.44
33 | Cc1ccc(C(=O)N/C(=C\c2ccc(-c3ccc(Cl)cc3)o2)C(=O)NCCCN(C)C)cc1 | -85
34 | CCNC(=S)NNC(=O)c1nn(C)c(C)c1Cl | 19
35 | CN(C)CCNC(C(=O)Nc1cccc(C(F)(F)F)c1)c1ccccc1.O=C(O)C(=O)O (centres unmarked) | -56.7
36 | CC(C)CNC(CC(=O)O)c1ccccc1 (centres unmarked) | 5.03
37 | CCOc1ccccc1NC(=O)COc1coc(CN2CCCc3ccccc32)cc1=O | 3.31
38 | O=C(CCCSc1nc2ccccc2[nH]1)NCc1ccccc1F | -5.8
39 | COc1ccc(-c2nc(CN3CCN(Cc4cccc(F)c4)CC3)c(C)o2)cc1 | -46.6
40 | COc1ccc(N2CCN(C(=O)CCc3ccc(S(=O)(=O)NC(C)(C)C)cc3)CC2)cc1 | -26.2
41 | CCOC(=O)c1c(C)nn(-c2ncccc2NC(=O)NC(C)C)c1C | -5.56
42 | CC(CN1CCCCC1)OC(=O)c1ccccc1F.Cl (centres unmarked) | -6.41
43 | O=c1cc(O)c(-c2cccc(C(F)(F)F)c2)c(Cl)[nH]1 | 22.5
44 | Cc1ccccc1C(=O)NC(NCC1CCCO1)C(Cl)(Cl)Cl (centres unmarked) | -7.57
